The source of these data is ChEMBL document CHEMBL4888484, “Replenishing the malaria drug discovery pipeline: Screening and hit evaluation of the MMV Hit Generation Library 1 (HGL1) against asexual blood stage Plasmodium falciparum ,using a nano luciferase reporter read-out” (2022).

Structures are written as SMILES. Screen size: about 150,000 compounds; about 540 (0.36%) showed an effect of 50% or more. Some of the results follow.

This test relates to Plasmodium falciparum. Nature of the test: Primary screen in NF54 nanoGlo assay, in single point, at 2uM, 72h; a lower Z score goes with more inhibition. The class given is functional, Erythrocyte. As to conditions: timepoint 72 hour.
For the compound `O=C(CCN1CCOCC1)OC1CC2CCC(C1)N2CCc1ccccc1` (configuration not stated), the “% Inhibition” value is 32% and the Z score was -3.66.

`CCCn1cc(C(=O)Nc2ccccc2OCC)c2cccnc21`: the “% Inhibition” value was -1% and the Z score is 0.21.

Regarding `O=C(Cc1ccccc1)N1CCN(Cc2ccc3c(c2)OCO3)CC1`, the “% Inhibition” value is recorded as -12% and the Z score was found to be 2.22.

As to `CC(Cn1cc(Br)cn1)N[C@H](CCO)c1ccccc1` (some centres not stated), the “% Inhibition” value is reported as 1% and the Z score is -0.08.

As to `CN(C)C(=O)Oc1cccc2ccc(CN3CCC(N4CCN(c5ccc(C(F)(F)F)cn5)CC4)CC3)nc12`, the “% Inhibition” value amounted to 47% and the Z score is given as -2.74.

As for `Cc1cc(N2C[C@H](c3ccccc3)[C@@H]3[C@H]2C2CCN3CC2)cc(C)n1`, the “% Inhibition” value was -4% and the Z score is reported as 0.51.

Take `CCOc1ccc(-c2c(C#N)c(N)nc3c2N2CCC3CC2)cn1`: the “% Inhibition” value is reported as -2% and the Z score stood at 0.25.

Regarding `CCc1nn(C)cc1CN1CC(C)CC1c1cccnc1` (configuration not stated), the “% Inhibition” value is -12% and the Z score amounted to 1.53.

`c1cnc(N2C[C@@H](c3ccc4c(c3)OCO4)[C@@H]3[C@H]2C2CCN3CC2)nc1`: the “% Inhibition” value is on record as -3% and the Z score was 0.67.

For `OC[C@@H]1C[C@@H]2CC[N@]1C[C@H]2c1cn(-c2ccccc2)nn1`, the “% Inhibition” value was -13% and the Z score turned out to be 1.97.

With `O=C1NC(=O)N(c2ccccc2)C(=O)[C@H]1C(c1ccc(F)cc1)c1ccc(F)cc1`, the “% Inhibition” value was -6% and the Z score was found to be 1.02.

Consider `c1cc(-c2nc([C@@H]3CN4CCN3CC4)no2)no1`, for which the “% Inhibition” value was -11% and the Z score was 1.49.

In the case of `CCc1cccc(NC(=O)CN2C3CCC2CC(=O)C3)c1`, the “% Inhibition” value was -6% and the Z score came to 0.77.

On to `Cc1c(C)[n+]([O-])c([C@@H](c2ccc(Cl)cc2Cl)C2C(=O)NC(=O)NC2=O)n1CCO`, for which the “% Inhibition” value is -5% and the Z score was found to be 0.63.

Take `CCn1cc(CN2CCC[C@]3(C2)CC3(F)F)nn1`: the “% Inhibition” value was 1% and the Z score is given as -0.09.

In the case of `C[C@@H](Cc1ccc(Br)cc1)NCCS(C)(=O)=O`, the “% Inhibition” value is listed as -2% and the Z score was determined as 0.35.

On to `Cc1cc(COC(=O)c2cc(S(=O)(=O)F)c[nH]2)nc(C)n1`, for which the “% Inhibition” value is -3% and the Z score was found to be 0.28.

Take `O=S(=O)(NC[C@H]1C[C@@H]2CC[N@]1C[C@@H]2CN1CCc2ccccc21)c1cccs1`: the “% Inhibition” value is 4% and the Z score is on record as -0.7.

For `CC12CNC[C@](C)(CN(Cc3ccccc3)C1)C2`, the “% Inhibition” value is reported as -11% and the Z score was found to be 0.96.

For the compound `CCOc1ccc(-c2c(C#N)c(N)nc3c2[C@@H]2CC[C@H](C3)N2C)cn1`, the “% Inhibition” value is -5% and the Z score is 0.77.

For the compound `CC(C)(C)n1nnc(C(=O)Nc2nccc3cc(Br)ccc23)n1`, the “% Inhibition” value was -9% and the Z score was 0.96.

Consider `Cc1nnsc1CN1C[C@@H](c2ccc3c(c2)OCO3)[C@@H]2[C@H]1C1CCN2CC1`, for which the “% Inhibition” value was -5% and the Z score turned out to be 0.57.

Consider `C[C@H]1CS(=O)(=O)C[C@H]1NC(=O)c1ccc2oc(=O)[nH]c2c1`, for which the “% Inhibition” value was -8% and the Z score was found to be 1.62.

As for `CC(c1nc(C2CC2)no1)N1C2CCC1COC2` (configuration not stated), the “% Inhibition” value is recorded as 1% and the Z score is on record as -0.21.

On to `Cc1ccccc1NC(=O)C1(N2C[C@@H]3C[C@@H](C2)c2cccc(=O)n2C3)CCC(C)CC1` (some centres not stated), for which the “% Inhibition” value is reported as -9% and the Z score amounted to 1.14.

With `CCc1cnc(C)nc1N1C[C@H]2c3ccccc3OC[C@@]2(C(=O)O)C1`, the “% Inhibition” value was -7% and the Z score was found to be 0.94.

With `O=C(N[C@@H]1[C@@H]2CCO[C@@H]2[C@H]1N1CCCCC1)c1ccon1`, the “% Inhibition” value is reported as 1% and the Z score was -0.2.

Turning to `C[C@@H](Cc1ccc(F)cc1)NCC(C)(C)C(N)=O`, the “% Inhibition” value is recorded as -4% and the Z score was determined as 0.56.

`C[C@@H](C(=O)N1CCC2(CC1)OCCO2)n1nc(-c2ccccc2)c2cc(Cl)ccc21`: the “% Inhibition” value was 1% and the Z score is on record as -0.25.

`O=C(Cc1noc2ccccc12)NC1CCN2CCCCC12` (configuration not stated): the “% Inhibition” value came out at 0% and the Z score is 0.06.

Turning to `O=C1N(C2CCCC2)CCC[C@@]12CCN(Cc1ncccn1)C2`, the “% Inhibition” value turned out to be 2% and the Z score is on record as -0.29.

Turning to `COc1cccc(C[C@H](C)NC(=O)N(C)CC2CCN(C)CC2)c1`, the “% Inhibition” value is recorded as 4% and the Z score is -0.43.

For `c1cc(CN2CCO[C@]3(CNCCOC3)C2)cs1`, the “% Inhibition” value is 12% and the Z score is recorded as -1.5.

Take `Cn1c(=O)oc2c(C(=O)Nc3cc(C4CCC4)nn3-c3ccccc3)cccc21`: the “% Inhibition” value is -6% and the Z score was determined as 0.73.

Regarding `CC(C)(C)c1nn(Cc2nc(-c3ccco3)no2)c(=O)o1`, the “% Inhibition” value is -7% and the Z score worked out at 1.04.

Regarding `CC1CC1C(=O)N1CCC(S(=O)(=O)F)C1` (configuration not stated), the “% Inhibition” value is -7% and the Z score was determined as 0.88.

For `CC(C)(C)c1nnc2n1CCN(C(=O)c1ccc3[nH]c(=O)oc3c1)C2`, the “% Inhibition” value worked out at 21% and the Z score is -2.65.

On to `COc1ccccc1NC(=O)N1C[C@@H]2C[C@H](C1)c1c(-c3ccccc3F)ccc(=O)n1C2`, for which the “% Inhibition” value is given as 8% and the Z score is -0.9.

With `CNC(=O)c1ccc(CN2CC(C(=O)c3ccc(F)cc3)C2)cc1`, the “% Inhibition” value is on record as -9% and the Z score is on record as 0.87.

`CC1CCCC2CCCN(Cc3nc4c(cnn4C)c(=O)[nH]3)C12` (configuration not stated): the “% Inhibition” value is on record as -8% and the Z score was 0.94.

Regarding `CCC(CC)C(=O)NC[C@H]1C[C@@H]2CCN1C[C@@H]2c1cc(-c2ccco2)nc(C)n1`, the “% Inhibition” value was 19% and the Z score is listed as -2.17.

The % Inhibition is the relative decrease from the control value, in per cent.
